# Results: ChEMBL document CHEMBL5606460, “ASAP - DENV-2 NS2B-NS3 protease fluorescence single point” (2024)
# Out of some 2,000 compounds screened, about 110 (5.5%) showed an effect of 50% or more. Some of the results follow.
# Biological target: Genome polyprotein (dengue virus type 2) (UniProt P29990)
# [1] = Thailand/16681/1984, Concentration 25.0 uM, Number of replicates 1.0
smiles,measurement,setting,value
Cc1cnccc1NC(=O)c1ccccc1OCc1ccccc1,inhibition,"Thailand/16681/1984, Concentration 49.5 uM, Number of replicates 2.0, Standard deviation 0.6770638332184061 %",-5.1%
same,inhibition,"Thailand/16681/1984, Concentration 99.01 uM, Number of replicates 2.0, Standard deviation 0.8934150705676202 %",-4.82%
same,inhibition,"Thailand/16681/1984, Concentration 198.0 uM, Number of replicates 2.0, Standard deviation 1.2952105869034334 %",-4.2%
C[C@H](NC(=O)C1CCN(c2ccc(C=O)cc2)CC1)c1ccc(Cl)cc1Cl,inhibition,[1],4.82%
Cc1cc(CO)c2cccc(Cc3ccccc3C(=O)N3CCO[C@@H](CN)C3)c2n1,inhibition,"Thailand/16681/1984, Concentration 49.95 uM, Number of replicates 2.0, Standard deviation 3.8059806233456843 %",-6.12%
same,inhibition,"Thailand/16681/1984, Concentration 99.9 uM, Number of replicates 2.0, Standard deviation 0.37872955767016525 %",-9.56%
Cc1nc2cc(CN3CCC[C@H](c4cc5ccccc5[nH]4)C3)ccc2[nH]1,inhibition,"Thailand/16681/1984, Concentration 49.5 uM, Number of replicates 2.0, Standard deviation 2.2283132795181855 %",-2.12%
same,inhibition,"Thailand/16681/1984, Concentration 99.01 uM, Number of replicates 2.0, Standard deviation 2.713518462728271 %",-0.915%
same,inhibition,"Thailand/16681/1984, Concentration 198.0 uM, Number of replicates 2.0, Standard deviation 3.2458212740095824 %",0.864%
Cc1cc(-c2nn(C)cc2NC(=O)c2ccccc2C(F)(F)F)[nH]n1,inhibition,"Thailand/16681/1984, Concentration 49.5 uM, Number of replicates 2.0, Standard deviation 1.752059665463329 %",-5.04%
same,inhibition,"Thailand/16681/1984, Concentration 99.01 uM, Number of replicates 2.0, Standard deviation 1.607181728168465 %",-4.72%
same,inhibition,"Thailand/16681/1984, Concentration 198.0 uM, Number of replicates 2.0, Standard deviation 0.9745469110141209 %",-1.85%
Cc1nc([C@H]2CCCNC2)[nH]c1C(=O)Nc1cc(-c2cccnc2)n[nH]1,inhibition,"Thailand/16681/1984, Concentration 49.5 uM, Number of replicates 2.0, Standard deviation 2.201855131750138 %",-3.46%
same,inhibition,"Thailand/16681/1984, Concentration 99.01 uM, Number of replicates 2.0, Standard deviation 1.858065153444822 %",-1.45%
same,inhibition,"Thailand/16681/1984, Concentration 198.0 uM, Number of replicates 2.0, Standard deviation 1.383155203311006 %",1%
NCc1cccc(NC(=O)[C@H]2CN(C(=O)OCc3ccccc3)CC23CCOCC3)c1,inhibition,"Thailand/16681/1984, Concentration 49.5 uM, Number of replicates 2.0, Standard deviation 3.4820905640560142 %",-2.83%
same,inhibition,"Thailand/16681/1984, Concentration 99.01 uM, Number of replicates 2.0, Standard deviation 3.010767204046265 %",-1.08%
same,inhibition,"Thailand/16681/1984, Concentration 198.0 uM, Number of replicates 2.0, Standard deviation 2.6769829613344203 %",-0.776%
Nc1nc(CN2CCNCC2)nc2ccccc12,inhibition,"Thailand/16681/1984, Concentration 49.95 uM, Number of replicates 2.0, Standard deviation 3.1670645770640644 %",-6.82%
same,inhibition,"Thailand/16681/1984, Concentration 99.9 uM, Number of replicates 2.0, Standard deviation 4.39111425635431 %",-5.57%
CN(C)C1(CNC(=O)C2CCN(c3ccc(C=O)cc3)CC2)CCOCC1,inhibition,[1],12.1%
CCCN(C(=O)C1CCN(c2ccc(C=O)cc2)CC1)[C@@H](C)c1ccccc1,inhibition,[1],14.3%
CSCC(=O)Nc1ccc(Cl)c2cccnc12,inhibition,"Thailand/16681/1984, Concentration 49.95 uM, Number of replicates 2.0, Standard deviation 4.284996583998793 %",-8.76%
same,inhibition,"Thailand/16681/1984, Concentration 99.9 uM, Number of replicates 2.0, Standard deviation 5.022059659232943 %",-8.17%
O=Cc1ccc(N2CCC(C(=O)Nc3cnn(-c4ccccc4)c(=O)c3Cl)CC2)cc1,inhibition,[1],12.9%
CC(=O)N[C@@H](CCCCN)C(=O)Nc1cccc2c(CO)cc(C)nc12,inhibition,"Thailand/16681/1984, Concentration 49.95 uM, Number of replicates 2.0, Standard deviation 0.7189645441339965 %",35.5%
same,inhibition,"Thailand/16681/1984, Concentration 99.9 uM, Number of replicates 2.0, Standard deviation 0.1513618084697797 %",97.4%
Cc1cnccc1NC(=O)c1cc(C2CCCC2)n(C)c1C,inhibition,"Thailand/16681/1984, Concentration 49.5 uM, Number of replicates 2.0, Standard deviation 1.895573393565592 %",-3.53%
same,inhibition,"Thailand/16681/1984, Concentration 99.01 uM, Number of replicates 2.0, Standard deviation 0.7217418528634704 %",-1.88%
same,inhibition,"Thailand/16681/1984, Concentration 198.0 uM, Number of replicates 2.0, Standard deviation 1.3851925911876457 %",0.718%
CCN(C(=O)c1cc(C)cc2cn[nH]c12)[C@H]1CCN(C(=O)c2nc(N)ccc2C)C1,inhibition,"Thailand/16681/1984, Concentration 49.5 uM, Number of replicates 2.0, Standard deviation 0.8740799509321564 %",-1.8%
same,inhibition,"Thailand/16681/1984, Concentration 99.01 uM, Number of replicates 2.0, Standard deviation 0.47840373553163984 %",-2.19%
same,inhibition,"Thailand/16681/1984, Concentration 198.0 uM, Number of replicates 2.0, Standard deviation 1.664888518800005 %",-4.37%
Cc1cc(CO)c2cccc(NC(=O)c3nc(-c4ccccc4)oc3C(F)(F)F)c2n1,inhibition,"Thailand/16681/1984, Concentration 49.95 uM, Number of replicates 2.0, Standard deviation 3.021297847027803 %",28.1%
same,inhibition,"Thailand/16681/1984, Concentration 99.9 uM, Number of replicates 2.0, Standard deviation 2.6625533133971393 %",43.6%
O=Cc1ccc(N2CCC(C(=O)Nc3ccc4c(c3)OCCO4)CC2)cc1,inhibition,[1],7.28%
O=Cc1ccc(N2CCC(C(=O)N[C@@H](c3ccccc3)c3ccc(Br)cc3)CC2)cc1,inhibition,[1],-4.37%
COc1cc(CNC(=O)C2CCN(c3ccc(C=O)cc3)CC2)cc(OC)c1,inhibition,[1],11.4%
CC(C)(CO)NC(=O)c1cc(Cl)cc(NS(=O)(=O)c2ccccc2)c1,inhibition,"Thailand/16681/1984, Concentration 49.5 uM, Number of replicates 2.0, Standard deviation 0.43077113751226487 %",-5.72%
same,inhibition,"Thailand/16681/1984, Concentration 99.01 uM, Number of replicates 2.0, Standard deviation 0.028975789763845603 %",-4.57%
same,inhibition,"Thailand/16681/1984, Concentration 198.0 uM, Number of replicates 2.0, Standard deviation 1.4999717780869397 %",-2.99%
Cc1cc(CO)c2cccc(Cc3ccccc3NC(=O)Cc3c(C)c4c(=O)[nH]n(C)c4[nH]c3=O)c2n1,inhibition,"Thailand/16681/1984, Concentration 49.95 uM, Number of replicates 2.0, Standard deviation 2.5458058686723866 %",22.5%
same,inhibition,"Thailand/16681/1984, Concentration 99.9 uM, Number of replicates 2.0, Standard deviation 1.6741240734205003 %",45.5%
O=C(Nc1ccn(C2CCC2)n1)c1ccn([C@H]2CCCNC2)n1,inhibition,"Thailand/16681/1984, Concentration 49.5 uM, Number of replicates 2.0, Standard deviation 1.9181978218462399 %",-3.58%
same,inhibition,"Thailand/16681/1984, Concentration 99.01 uM, Number of replicates 2.0, Standard deviation 11.711213803316953 %",6.41%
same,inhibition,"Thailand/16681/1984, Concentration 198.0 uM, Number of replicates 2.0, Standard deviation 0.15914093659313241 %",-3.38%
